In patent publication US12390508B2, “Brain natriuretic peptide engrafted antibodies” (Boehringer Ingelheim International GmbH, priority 2018, dated 2025):
Like-named read-outs stand apart in the source and are kept apart here.

T1: insulin degrading enzyme (IDE) (Rattus norvegicus, UniProt P35559)
T1 sequence (P35559 42-1019 limits assumed): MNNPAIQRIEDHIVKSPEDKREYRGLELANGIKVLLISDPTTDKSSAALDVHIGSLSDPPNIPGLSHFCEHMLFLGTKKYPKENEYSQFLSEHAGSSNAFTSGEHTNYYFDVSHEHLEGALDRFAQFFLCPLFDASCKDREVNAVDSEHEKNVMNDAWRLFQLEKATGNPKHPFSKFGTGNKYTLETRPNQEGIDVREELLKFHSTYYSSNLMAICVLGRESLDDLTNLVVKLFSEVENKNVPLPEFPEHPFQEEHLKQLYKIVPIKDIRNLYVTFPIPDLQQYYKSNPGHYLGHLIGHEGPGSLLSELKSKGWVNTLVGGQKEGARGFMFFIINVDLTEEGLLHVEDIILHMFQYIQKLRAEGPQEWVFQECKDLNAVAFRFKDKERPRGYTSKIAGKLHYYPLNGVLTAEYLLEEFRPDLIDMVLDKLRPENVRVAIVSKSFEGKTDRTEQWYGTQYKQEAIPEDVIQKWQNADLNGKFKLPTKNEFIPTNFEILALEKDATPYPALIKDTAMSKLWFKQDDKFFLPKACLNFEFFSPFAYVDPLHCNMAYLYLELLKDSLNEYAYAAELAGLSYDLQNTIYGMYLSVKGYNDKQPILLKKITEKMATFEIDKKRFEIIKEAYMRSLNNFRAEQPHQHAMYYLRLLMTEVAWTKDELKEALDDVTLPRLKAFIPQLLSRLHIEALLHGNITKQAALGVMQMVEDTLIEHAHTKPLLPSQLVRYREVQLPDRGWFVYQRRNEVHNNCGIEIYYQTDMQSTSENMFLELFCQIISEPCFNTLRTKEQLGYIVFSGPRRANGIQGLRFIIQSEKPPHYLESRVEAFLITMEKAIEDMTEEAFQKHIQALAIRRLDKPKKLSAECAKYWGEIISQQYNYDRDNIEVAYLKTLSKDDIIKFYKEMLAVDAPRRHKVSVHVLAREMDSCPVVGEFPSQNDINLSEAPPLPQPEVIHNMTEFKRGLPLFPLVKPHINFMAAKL


Assays:
[1] = rat, in vivo, iv, 5 mg/kg
Procedure: Pharmacokinetic parameters of TPP-10992 (SEQ ID NO 76 and SEQ ID NO 66) and TPP-5661 (SEQ ID NO 67 and SEQ ID NO 66) were determined after intravenous administration of 5 mg/kg to male Wistar rats (n=3). TPP-10992 and TPP-5661 were given as a bolus injection via the tail vein. Blood samples were collected from the jugular vein via previously implanted catheters in time intervals up to 14 days (336 hours). Generated EDTA-plasma was stored at −20° C. until further analysis.
The quantification of TPP-10992 and TPP-5661 in plasma samples was performed employing an anti-human IgG ELISA (enzyme-linked immunosorbent assay) format. Pharmacokinetic parameters were calculated from plasma concentration time profiles using non-compartmental data analysis.

[2] = biological target: T2, neutral endopeptidase (NEP) (Homo sapiens, UniProt P08473); test: Sensitivity towards proteolytic degradation by neutral endopeptidase (NEP); type: in vitro ADME; settings: 4 hours incubation with 0.6 μg/ml NEP at 37° C., then activity on the rat receptor cell line
T2 construct: purchased R&D Systems 1182-ZNC

[3] = test system: PE-contracted aortic rings; test: Vasorelaxation of phenylephrine-contracted isolated rat aortic rings
Procedure: All experiments were conducted in accordance with institutional guidelines and approved by the local committee on animal experiments. Male Sprague-Dawley rats (weighing 250-300 g) were anesthetized with pentobarbital sodium (40 mg/kg i.p.), killed by decapitation, and exsanguinated. The thoracic aorta was excised and placed in ice-cold Krebs buffer of the following composition: 130 mM NaCl, 14.9 mM NaHCO3, 5.5 mM dextrose, 4.7 mM KCl, 1.18 mM KH2PO4, 1.17 mM MgSO47H2O, and 1.6 mM CaCl22H2O. The vessel was pinned in a Sylgard Petri dish filled with chilled Krebs' solution, cleaned of fat and connective tissue, and cut into ring segments of approximately 3 to 4 mm in length. […] Changes in isometric force were recorded using a PowerLab data acquisition system (software Lab Chart 7.0)
After the equilibration period, aortic rings were challenged with 80 mM KCl to check tissue viability. Next, the endothelial integrity of the preparations was determined by verifying the responsiveness to acetylcholine (ACh, 1 μM) in vessels pre-contracted with Phenylephrine (PE, 1 μM). After wash-out and a period of equilibration, Phenylephrine (PE, 1 μM) was used to induce contraction, thereafter natriuretic peptides and natriuretic peptide engrafted IgGs were evaluated for vasorelaxation.

[4] = test system: spontaneously hypertensive rats; test: Blood pressure by radiotelemetry in conscious spontaneously hypertensive rats; type: in vivo, rat; settings: 30 mg/kg intraperitoneally
Procedure: Blood pressure and heart rate were monitored in freely moving conscious animals by radiotelemetry (Data Sciences International). Female spontaneously hypertensive rats (SHR/N Crl BR, Charles River) with a body weight of 210-300 g were used for these studies. All animals were housed in individual cages at 22-24° C. ambient temperature and maintained on a 12-hour light/dark cycle with free access to standard laboratory rat chow and water ad libitum. Telemeter (HD-10, DSI) implantation was performed a minimum of 14 days before animals were used for blood pressure measurements. Surgery was performed under aseptic conditions. After shaving the abdominal wall, a midline abdominal incision was made, and the fluid-filled sensor catheter was inserted upstream into the exposed descending aorta between the iliac bifurcation and the renal arteries. According to the DSI guidelines the tip of the telemetric catheter was located caudal to the renal arteries and secured by tissue adhesive. The transmitter body was affixed to the inner peritoneal wall before closure of the abdomen. For postsurgical protection against infections and pain a single dosage of an antibiotic (Oxytetracyclin® 10%, 60 mg/kg s.c., 0.06 ml/100 g body weight, Beta-Pharma GmbH & Co, Germany) and analgesic were injected (Rimadyl®, 4 mg/kg s.c., Pfizer, Germany). Telemetric data acquisition was performed by DSI software was predefined to sample hemodynamic data for 10 seconds repeated every 5 minutes. Data collection was started at least 2 hours before drug administration and finished after completion of measurement cycles. Data are expressed as % of basal values±SEM of at least 4 animals per group. The basal value for each animal was calculated as the average of the values measured in two hours prior to substance application (7:00-9:00 AM). Data are then expressed as averages every half hour, starting 15 minutes post application. All animals were treated with a single intraperitoneal (ip) application of test substances dissolved in phosphate buffered saline (PBS). Drug administration took place at 9:00 AM (0 hours).

beagle dogs = test: Hemodynamics in conscious telemetered beagle dogs; type: in vivo, dog
Procedure: The effects of TPP-10992 on cardiovascular and ECG parameters after single subcutaneous administration were assessed in a primary pharmacodynamic study in conscious telemetered beagle dogs.
Telemetry devices (DSI™, USA) were surgically implanted to measure blood pressure as well as heart rate, followed by a recovery period to allow wound closure. On the day of the study, telemetry sensors were activated for continuous hemodynamic measurements. The transmitted signals were collected by telemetry receivers located in the animal facility. All collected data were processed by a data acquisition program and averaged over a predefined period of 12 h. As vehicle for TPP-10992 NaCl (0.9%) was used and doses of 0.1 mg/kg, 0.3 mg/kg and 1.0 mg/kg bodyweight were applied via subcutaneous injection.

[5] = biological target: T1, insulin degrading enzyme (IDE); test: Sensitivity towards proteolytic degradation by insulin degrading enzyme (IDE); settings: 4 hours incubation with 0.6 μg/ml IDE at 37° C., then activity on the rat receptor cell line
[6] = Pharmacokinetics after intraperitoneal administration in mice (anti-human IgG ELISA); type: in vivo, mouse; settings: intraperitoneal administration of 5 mg/kg
Procedure: Pharmacokinetic parameters of TPP-12897 were determined after intraperitoneal administration to female Balb/c mice (n=3). Blood samples were collected from 15 minutes up to 72 hours post application. Generated EDTA-plasma was stored at −20° C. until further analysis. The quantification of TPP-12897 in plasma samples was performed by an anti-human IgG (Immunoglobulin G) ELISA format.
Pharmacokinetic parameters were calculated from plasma concentration time profiles using non-compartmental data analysis.

T2 sequence (P08473 52-750 limits assumed): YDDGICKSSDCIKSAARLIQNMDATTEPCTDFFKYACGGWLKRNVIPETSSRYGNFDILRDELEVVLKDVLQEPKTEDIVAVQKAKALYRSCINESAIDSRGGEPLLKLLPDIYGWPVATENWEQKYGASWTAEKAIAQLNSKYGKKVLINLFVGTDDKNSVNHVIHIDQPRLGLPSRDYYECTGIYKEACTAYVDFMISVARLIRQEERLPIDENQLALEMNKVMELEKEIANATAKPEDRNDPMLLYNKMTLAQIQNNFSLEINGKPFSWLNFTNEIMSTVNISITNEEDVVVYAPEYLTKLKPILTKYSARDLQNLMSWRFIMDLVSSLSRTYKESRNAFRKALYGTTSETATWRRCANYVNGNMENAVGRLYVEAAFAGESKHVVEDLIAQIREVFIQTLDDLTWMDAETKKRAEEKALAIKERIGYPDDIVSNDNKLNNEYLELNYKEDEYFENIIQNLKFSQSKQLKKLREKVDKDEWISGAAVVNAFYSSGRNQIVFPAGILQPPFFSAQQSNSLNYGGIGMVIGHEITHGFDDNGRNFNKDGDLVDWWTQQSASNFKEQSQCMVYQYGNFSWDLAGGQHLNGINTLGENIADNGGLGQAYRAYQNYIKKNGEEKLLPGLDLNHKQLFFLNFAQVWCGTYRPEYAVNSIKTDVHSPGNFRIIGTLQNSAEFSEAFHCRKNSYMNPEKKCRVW

Molecule	Mean clearance (CL) [1] [mL/h/kg]	terminal half-life (t1/2) [1] [h]	sensitivity towards proteolytic degradation by NEP [2]	Potency (log EC50 values), vasodilation ([3]; endothelium-intact rat aortic rings contracted by phenylephrine (1 μM), 0.0001-10 μM)	vasodilation in PE-contracted aortic rings ([3]; rat aortic rings, phenylephrine 1 μM)	duration of effect on MAP [4]	reduction in mean arterial blood pressure (MAP) [4]	time of maximum effect on MAP post application [4] [h]	reduction in blood pressure compared to placebo (beagle dogs; healthy beagle dogs, 1.0 mg/kg s.c.)	reduction in blood pressure (beagle dogs; healthy beagle dogs, 0.1, 0.3 and 1.0 mg/kg single subcutaneous)	effects on heart rate (beagle dogs; healthy beagle dogs, 0.1-1.0 mg/kg s.c.)	duration of reduction in blood pressure (beagle dogs; healthy beagle dogs, single subcutaneous) [days]	sensitivity towards proteolytic degradation by IDE [5]	Mean area under the curve (AUC) [6] [µg·h/mL]	terminal half-life (t1/2) [6] [h]
TPP-10992: compound 9 IgG4, ANP engrafted in CDRH1; HC SEQ ID NO 76, LC SEQ ID NO 66 (antibody, listed as Homo sapiens, NP engrafted HC) heavy: EVQLLESGGGLVQPGGSLRLSCAASGFTFGSGSGSGSGSGSPDGGSGGSLRRSSCFGGRMDRIGAQSGLGCNSFRYGSYGSGSGSGSGSGMSWVRQAPGKGLEWVSAISGSGGSTYYADSVKGRFTISRDNSKNTLYLQMNSLRAEDTAVYYCAKLTGAEYFQHWGQGTLVTVSSASTKGPSVFPLAPCSRSTSESTAALGCLVKDYFPEPVTVSWNSGALTSGVHTFPAVLQSSGLYSLSSVVTVPSSSLGTKTYTCNVDHKPSNTKVDKRV[in this place human IgG4 Fc with S228P (EU numbers)] light: QSVLTQPPSVSGAPGQRVTISCTGSSSNIGAGYDVHWYQQLPGTAPKLLIYGNSNRPSGVPDRFSGSKSGTSASLAITGLQAEDEADYYCQSYDSSLSGVVFGGGTKLTVLGQPKAAPSVTLFPPSSEELQANKATLVCLISDFYPGAVTVAWKADSSPVKAGVETTTPSKQSNNKYAASSYLSLTPEQWKSHRSYSCQVTHEGSTVEKTVAPTECS	0.27	184	high resistance	−6.7	dose-dependent vasodilation	greater than 6 days	approximately 20%	48	significant	dose-dependent and long-lasting	No effects	> 5	high resistance		
TPP-12897: CNP engrafted antibody based on TPP-12377, LC_S98D; HC SEQ ID NO 445, LC SEQ ID NO 447 (antibody, listed as Homo sapiens, NP engrafted HC) heavy: EVQLLESGGGLVQPGGSLRLSCAASGFTFSSYAMSWVRQAPGKGLEWVSAISGSGGSTYYADSVKGRFTISRDNSKNTLYLQMNSLRAEDTAVYYCTSVHQETKKYQSSPYKGANKKGLSKGCFGLKLDRIGSMSGLGCGSGGSGSYSYTYNYEWHVDVWGQGTLVTVSS[in this place human IgG1 constant region] light: QSVLTQPPSVSGAPGQRVTISCTGSSSNIGAGYDVHWYQQLPGTAPKLLIYGNSNRPSGVPDRFSGSKSGTSASLAITGLQAEDEADYYCQSYDSSLDGVVFGGGTKLTVLGQPKAAPSVTLFPPSSEELQANKATLVCLISDFYPGAVTVAWKADSSPVKAGVETTTPSKQSNNKYAASSYLSLTPEQWKSHRSYSCQVTHEGSTVEKTVAPTECS			high resistance										high resistance	7705	194
